# Screen size: about 310,000 compounds; about 2,200 (0.71%) showed an effect of 50% or more. The effect is printed as a negative number. The list shows a part of the results.
# Target: human ether-à-go-go-related gene (hERG) potassium channel (human, UniProt Q12809)
# Assay: primary screen, population patch clamp on CHO cells stably expressing hERG
# Sequence of human ether-à-go-go-related gene (hERG) potassium channel (Q12809 whole entry, looked up): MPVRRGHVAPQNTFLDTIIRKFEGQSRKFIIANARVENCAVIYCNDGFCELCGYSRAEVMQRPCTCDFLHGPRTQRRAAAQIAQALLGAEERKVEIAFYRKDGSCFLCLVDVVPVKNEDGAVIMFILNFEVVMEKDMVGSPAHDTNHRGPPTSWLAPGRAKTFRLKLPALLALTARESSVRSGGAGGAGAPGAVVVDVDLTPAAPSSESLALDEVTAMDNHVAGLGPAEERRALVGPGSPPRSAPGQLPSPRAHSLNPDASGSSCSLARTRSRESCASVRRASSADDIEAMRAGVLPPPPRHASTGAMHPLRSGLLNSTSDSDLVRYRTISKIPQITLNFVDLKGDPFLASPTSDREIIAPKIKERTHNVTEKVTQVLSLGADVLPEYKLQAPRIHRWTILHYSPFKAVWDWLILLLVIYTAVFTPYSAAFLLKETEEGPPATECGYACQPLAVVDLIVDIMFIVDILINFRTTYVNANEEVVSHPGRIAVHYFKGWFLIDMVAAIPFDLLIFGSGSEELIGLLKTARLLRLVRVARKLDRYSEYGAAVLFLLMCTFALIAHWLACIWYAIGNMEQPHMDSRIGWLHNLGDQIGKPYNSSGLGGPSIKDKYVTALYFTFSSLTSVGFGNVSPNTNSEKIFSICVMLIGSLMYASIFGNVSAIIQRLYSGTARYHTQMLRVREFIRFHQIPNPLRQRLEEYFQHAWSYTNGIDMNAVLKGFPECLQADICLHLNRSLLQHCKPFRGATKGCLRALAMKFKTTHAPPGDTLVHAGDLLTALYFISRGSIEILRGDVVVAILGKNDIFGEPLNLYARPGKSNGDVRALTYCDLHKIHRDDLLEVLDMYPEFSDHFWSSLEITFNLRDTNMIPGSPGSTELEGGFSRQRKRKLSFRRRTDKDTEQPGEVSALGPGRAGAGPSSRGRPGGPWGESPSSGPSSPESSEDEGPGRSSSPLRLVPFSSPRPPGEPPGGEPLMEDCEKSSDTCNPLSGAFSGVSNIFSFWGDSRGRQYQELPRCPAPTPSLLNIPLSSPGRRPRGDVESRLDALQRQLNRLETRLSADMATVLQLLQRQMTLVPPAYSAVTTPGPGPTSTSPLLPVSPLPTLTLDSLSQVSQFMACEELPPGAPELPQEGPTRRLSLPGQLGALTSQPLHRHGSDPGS
row,Compound,"hERG current change (%, negative = inhibition) at 1uM"
1,CCc1nnc(NC(=O)CSc2nnc(-c3ccco3)n2CC)s1,9.88%
2,CCOc1ccc(/C=C(\C#N)C(=O)Nc2ccccn2)cc1,8.95%
3,NS(=O)(=O)c1ccc(CCNc2nc(CN3CCOCC3)nc3sc4c(c23)CCC4)cc1,3.28%
4,O=C(CCl)Nc1cc2[nH]c(=O)[nH]c2cc1Br,12.7%
5,CC(C)(C)OC(=O)[C@H](CCCC[NH3+])NC(=O)c1nc[nH]c1C(=O)NCCCCC[NH3+].[Cl-],4.8%
6,COc1ccc(OC)c(-c2csc(NC(=O)c3ccccc3F)n2)c1,12%
7,COc1ccc(Oc2nc(-c3cccnc3)nc3ccccc23)cc1,11.1%
8,CCCCc1nnc(NC(=O)C2CCN(c3ncnc4sc(C)c(C)c34)CC2)s1,16.7%
9,O=C(CCc1nnc(Cc2ccc3c(c2)OCO3)o1)NCCc1ccccc1Cl,10%
10,COc1cc(/C(C)=N/NC(=O)c2ccc(CSc3nncn3C)cc2)cc(OC)c1OC,5.47%
11,CC(C)c1ccc(-c2csc3nc[nH]c(=O)c23)cc1,12.9%
12,COc1ccc(N(CC(=O)Nc2ccc3c(c2)OCO3)S(=O)(=O)c2ccccc2)cc1,9.01%
13,O=C(O)C1CCN(c2ccccc2[N+](=O)[O-])CC1,3.56%
14,COc1ccc2c(c1)CCc1c(C(=O)NCCc3ccc(OC)c(OC)c3)noc1-2,0.875%
15,CSc1ccc(S(=O)(=O)NCCCn2ccnc2)cc1,4.06%
16,O=C(c1cc2cc(Br)ccc2o1)N1CCN(c2ccccc2)CC1,11.3%
17,O=C(NCCCn1ccnc1)C(=O)NCC1OCCN1S(=O)(=O)c1ccc(Br)cc1 (stereo not drawn),12%
18,O=c1cc(/N=C/c2coc3c(ccc4ccccc43)c2=O)[nH]c(=S)[nH]1,9.15%
19,COc1ccc(C(=O)NC(C)Cc2cnccn2)cc1OC1CCN(C(C)C)CC1 (stereo not drawn),13.1%
20,CC(CS(=O)(=O)c1ccccc1[N+](=O)[O-])N1CCOCC1 (stereo not drawn),5.44%
21,CC1CC(=O)N(c2ccc(NCc3ccccc3Cl)c([N+](=O)[O-])c2)C1=O (stereo not drawn),5.29%
22,O=[N+]([O-])c1cccc(CN(CCO)Cc2ccccc2)c1,1.48%
23,c1ccc(OCc2nc3ccccc3s2)cc1,8.74%

row,Compound,"hERG current change (%, negative = inhibition) at 1uM"
1,CCCCOc1ccc(C(=O)CCN2CCOCC2)cc1.Cl,4.11%
2,CCn1c(CC(=O)Nc2ccc(F)cc2)nnc1SCC(=O)Nc1nncs1,1.78%
3,Cc1cccc(NC(=O)Cn2nc(-c3cccs3)ccc2=O)c1C,13.2%
4,CC(=O)Nc1ccc(C(=S)NCCCO)cc1,11.3%
5,Cc1c(CCN)ccc2c1[nH]c1ccccc12,13.8%
6,O=C1N(CCCCN2C(=O)C3(OCCO3)c3ccccc32)c2ccccc2C12OCCO2,7.7%
7,O=C(NNC1=NS(=O)(=O)c2ccccc21)C1CC(=O)N(c2ccccc2)C1 (stereo not drawn),6.86%
8,CN(C)c1ccc(/C=C/c2nc3ccccc3c(=O)[nH]2)cc1,16.1%
9,COc1ccc(/C=C/C(=O)O)cc1S(=O)(=O)Nc1ccc2c(c1)OCO2,12.7%
10,CN(C)c1ccc(NC(=S)NC(=O)/C=C/c2ccc(Cl)cc2)cc1,6.65%
11,COc1ccc2c(c1)c(=O)oc1c(C)c(OC(C)C(=O)N[C@@H](Cc3c[nH]c4ccc(O)cc34)C(=O)O)ccc12 (stereo partly drawn),19.3%
12,CC1CCN(C(=O)CSc2nnc(CNC(=O)c3ccc(F)cc3)o2)CC1,2.35%
13,NC(=O)CC(NC(=O)Cc1ccc(Cl)cc1)c1ccc(NC2CCCCC2)c([N+](=O)[O-])c1 (stereo not drawn),9.26%
14,Cc1cc(O)c(C2=Nc3ccccc3SC(c3ccc(Cl)cc3)C2)c(=O)o1 (stereo not drawn),12.5%
15,CNc1nc2c(c(=O)[nH]c(=O)n2C)n1CCCc1ccccc1,19.2%
16,COc1ccc(-c2c(C)nn3c(NC4CCCC4)cc(C)nc23)cc1OC,-18.6%
17,Cc1c(F)cccc1NC(=O)CCCCCC1NC(=O)NC1C (stereo not drawn),4.28%
18,Cc1ccc(C(=O)NCC(=O)OCC(=O)Nc2ccc(Cl)cc2C(F)(F)F)cc1C,3.41%
19,O=C(NCCCN1CCOCC1)c1nn(-c2ccccc2)c(=O)c2ccccc12,9.21%
20,COC(=O)c1cc(Br)c(=O)n(Cc2ccco2)c1,9.31%
21,Cc1ccc(OC(=O)CCNC(=O)c2ccccc2Cl)c(Br)c1,-0.579%
22,CC(C)(Cc1ccccc1)/[N+]([O-])=C\c1ccc(C(F)(F)F)cc1,7.04%

# Reference: publication PMC4336329 (PLoS ONE, 2015)
